`C=CC=CC` [1,trans-3-pentadiene] returned a melting point of -87 °C.
As for `CC(C)(C)c1ccc(O)cc1` [4-tert-butylphenol], the figure is 100 °C; as for `CC(=O)N(C)C` [N,N-Dimethylacetamide], -20 °C.
The molecule `CC(=O)N(C)C` [N,N-dimethylacetamide] returned a melting point of -20 °C.
In the case of `CC(=O)N(C)C` [n,n-dimethylacetamide], the melting point was -20 °C.

Usually melting point stands for the temperature, or range, at which the solid turns liquid.

The values are drawn from the Bradley open melting point set (2014).
